From PMC6919601, “Identification of Plasmodium dipeptidyl aminopeptidase allosteric inhibitors by high throughput screening” (PLoS ONE, 2019)
Out of some 110,000 compounds screened, about 230 (0.21%) showed an effect of 50% or more. Some of the results follow.

Target: DPAP1 (Plasmodium falciparum, UniProt Q8IIJ9)
Assay: primary screen, percent inhibition; read by cleavage of a fluorogenic dipeptide substrate; higher = more effect of the substance
Design: species or system P. falciparum D10 trophozoite lysates; single well
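Also: 30 min substrate incubation versus DMSO and 10 µM JCP410 controls.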

Chain of DPAP1 (Q8IIJ9 whole entry, looked up): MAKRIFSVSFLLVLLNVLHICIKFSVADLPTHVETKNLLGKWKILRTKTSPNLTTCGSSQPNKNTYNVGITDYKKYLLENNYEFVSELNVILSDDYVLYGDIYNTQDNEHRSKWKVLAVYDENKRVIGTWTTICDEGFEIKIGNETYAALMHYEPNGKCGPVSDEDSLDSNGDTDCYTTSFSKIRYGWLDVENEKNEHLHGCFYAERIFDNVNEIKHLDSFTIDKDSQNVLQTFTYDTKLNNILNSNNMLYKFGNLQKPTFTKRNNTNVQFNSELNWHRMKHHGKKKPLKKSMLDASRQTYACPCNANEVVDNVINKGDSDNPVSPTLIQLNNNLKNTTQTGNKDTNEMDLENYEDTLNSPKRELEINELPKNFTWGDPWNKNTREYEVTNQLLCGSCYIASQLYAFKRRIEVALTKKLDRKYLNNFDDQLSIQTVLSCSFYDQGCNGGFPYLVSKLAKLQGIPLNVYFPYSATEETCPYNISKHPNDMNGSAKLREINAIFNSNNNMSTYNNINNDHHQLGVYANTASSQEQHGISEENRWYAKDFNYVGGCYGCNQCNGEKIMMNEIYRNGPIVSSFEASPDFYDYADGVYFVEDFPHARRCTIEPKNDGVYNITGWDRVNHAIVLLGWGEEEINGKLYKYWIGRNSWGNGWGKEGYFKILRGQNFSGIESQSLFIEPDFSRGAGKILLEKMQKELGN

| SMILES | % Inhibition @ 10 uM [%] |
| --- | --- |
| CC1(C)CC2=Nc3ccccc3N(C(=O)Cc3ccccc3)C(c3ccco3)C2=C(O)C1 (centres unmarked) | 0.0538 |
| COc1ccc(C2=NN(CC(=O)NCCN(C)CCc3ccccc3)C(=O)CC2)cc1 | 3.24 |
| COCCNC(=O)C(C)n1nc(C)c2sc3ccccc3c2c1=O (centres unmarked) | -4.93 |
| Cc1ccc(Cc2nc(O)c3nnn(Cn4nnc(-c5ccccc5)n4)c3n2)cc1 | -5.08 |
| N#CCNC(=O)[C@@H](CCc1cccc(F)c1)NC(=O)OCc1ccccc1 | -6.56 |
| CC1=C(C#N)C(c2ccccc2C(F)(F)F)C2=C(O)CC(C)(C)CC2=N1 (centres unmarked) | -0.711 |
| CCOc1ccc(CCNC(=O)CCn2ccc3cc(S(=O)(=O)N4CCCC4)ccc32)cc1 | -4.77 |
| CC(C)Cc1cc(C(=O)NCc2ccccc2)no1 | -5.77 |
| CC1(C)CC(=O)C2=C(C1)N(c1cccnc1)C(N)=C(C#N)C2c1ccc(Cl)cc1 (centres unmarked) | 3.62 |
| Cc1ccc(S(=O)(=O)N2CCOCC2)cc1C(=O)Nc1cccnc1 | 1.26 |
| Cc1ccccc1N1C(=O)C2C3C=CC(C3=C3CCCC3)C2C1=O (centres unmarked) | -2.07 |
| O=C1C(Cl)=C(NCC2CCCO2)C(=O)N1C1CCCCC1 (centres unmarked) | 3.25 |
| CC1CC(C)CN(C(=O)c2cccc3c2SCCC3=O)C1 (centres unmarked) | -0.788 |
| COc1ccc(Cc2nnc(NC(=O)C3c4ccccc4Oc4ccccc43)s2)cc1 | 0.279 |
| CCN(CC)CCCN1C(=O)C(O)=C(C(=O)c2cc3ccccc3o2)C1c1ccc(C(=O)OC)cc1 (centres unmarked) | -5 |
| Cc1ccc(NC(=O)C2CC(O)CN2C(=O)OC(C)(C)C)cc1 (centres unmarked) | 3.24 |
| CCCn1c(SCc2nc(-c3cccs3)no2)nnc1-c1ccncc1 | 4.47 |
| COc1cccc(NC(=O)c2ccc3ccccc3c2)c1 | -2.36 |
| CN(C)c1ccc(Cc2c(NC=O)ccc3ccccc23)cc1 | 2.22 |
| N#Cc1cnc(SCc2cc(=O)n3ccccc3n2)nc1N | -5.64 |
| CC1CN(c2sc(S(C)(=O)=O)nc2S(=O)(=O)c2ccc(Cl)cc2)CC(C)O1 (centres unmarked) | -2.25 |
| COc1cc2c(cc1OC)C(C(=O)NC(C)CCc1ccccc1)C1c3ccccc3CCN1C2=O (centres unmarked) | -8.09 |
| O=C(c1ccccc1Cl)N1CCN(c2ccc([N+](=O)[O-])cc2)CC1 | -0.127 |
| CCOC(=O)Nc1ccc2c(c1)Nc1ccccc1CC2 | -4.49 |
| CC1CCN(c2nc3ccc(C(=O)NCc4cccc(Br)c4)cc3s2)CC1 | 0.0882 |

| SMILES | % Inhibition @ 10 uM [%] |
| --- | --- |
| CN1CCN(C(=O)CN2C(=O)c3cccc4cccc2c34)CC1 | 2.48 |
| COc1ccc(NC(=O)c2ccc(N3C(=O)C4C5C=CC(C5)C4C3=O)cc2)cc1 (centres unmarked) | -0.231 |
| CC1(C)CC(=O)C(/C=N/CC2CCN(C(=O)Cc3ccc(Cl)cc3)CC2)=C(O)C1 | -1.59 |
| C=CCOc1ccc(C(=O)C2=C(O)C(=O)N(CCN(CC)CC)C2c2ccccc2F)c(C)c1 (centres unmarked) | 4.54 |
| CC(C)(C)NC(=O)c1ccc(-n2nc(C(F)(F)F)c3c2-c2ccoc2CC3)cc1 | 2.31 |
| O=C1N=C(c2ccccc2)C(c2ccccc2)N1 (centres unmarked) | -1.77 |
| Cc1ccc(NC(=O)c2sc3nc(-c4ccncc4)ccc3c2N)cc1Cl | 3.5 |
| O=C(NCCC1=CCCCC1)C1CCN(c2ncnc3c2sc2cccc(F)c23)CC1 | 1.03 |
| Cc1oc(-c2cccs2)nc1CS(=O)CC(=O)NCc1ccc2c(c1)OCO2 (centres unmarked) | 3.19 |
| Cc1[nH]c2ccccc2c1C(c1ccncc1)N1CCCC1 (centres unmarked) | -2.92 |
| CC(=O)Nc1ccc(C(=O)N(C)C(C(=O)Nc2ccc(C)cc2)c2ccccn2)cc1 (centres unmarked) | 3.65 |
| Fc1ccccc1CCNC1CCN(Cc2ccccc2)CC1 | -0.0908 |
| COCCCNC(=O)CSc1nc2ccsc2c(=O)n1CCCCCC(=O)O | 3.54 |
| O=C(CC1SC(=O)N(Cc2cccc3ccccc23)C1=O)Nc1nccs1 (centres unmarked) | -2.82 |
| N#C/C(=C\c1ccc(Cl)cc1)c1nc(-c2ccc(Cl)cc2)cs1 | -2.51 |
| CC(C)N(C(=O)c1ccc(C(=O)NCc2ccccc2)cc1)C(C)C | -6.17 |
| CC(=O)Nc1nc(C)c(-c2csc(Nc3cccc(O)c3)n2)s1 | 3.65 |
| COC(=O)c1cc(C23CC4CC(CC(C4)C2)C3)oc1CNCc1ccccc1 | -3.75 |
| O=C(NC1CCC(NC(=O)c2cnccn2)CC1)c1cnccn1 (centres unmarked) | 1.28 |
| O=C(C1CC2CCC1C2)N1CCCN(C(=O)C2CC3CCC2C3)CC1 (centres unmarked) | -4.16 |
| COC(=O)c1ccc(-n2nnnc2SCCCC(=O)c2ccc(F)cc2)cc1 | -3.64 |
| Cc1ccc(C(N)=O)cc1S(=O)(=O)N1CCCCC1 | -1.48 |
| Cc1ccc(CNC(=O)CCCn2c(=O)c3sccc3n(CC(=O)c3ccc(F)cc3)c2=O)cc1 | 15.1 |
| COc1ccc(-c2ccc(C(C)=O)s2)cc1 | 0.709 |
| COc1ccc(N2C(=O)Cc3ccccc3C2=O)cc1 | -6.67 |
